Test results published in PubChem BioAssay AID588855 (National Center for Advancing Translational Sciences (NCATS), 2011).
The whole screen tested about 410,000 compounds, of which about 5,000 (1.2%) were called active. The shares of active, inactive and inconclusive entries below differ from those in the screen. The call rests on the fitted dose curve; in most records, active means well fitted inhibition curve with a large enough effect; inconclusive means small, poorly fitted or top-dose-only effect; inactive means no such curve, though single readings can be large or run the other way. Potencies beside an inconclusive call are fits to weak or partial responses and may not hold up.
On the % scale 0 is the no-effect control and ±100 the full control effect; potency means the concentration at half of the fitted maximal effect; tags describe the fitted curve by direction and shape.

Assay: qHTS for Inhibitors of TGF-b; further: nearly all actives have a fitted effect of over 65% in size
Conditions: HepG2 CAGA-GFP TGF-b/SMAD3 reporter, GFP fluorescence, 18 h, TGF-beta stimulated, 500 pg/mL final; series mostly up to 46.1 µM; activity, negative = inhibition: at the top concentration
In short: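 Using HEPG2 CAGA-GFP reporter cells at 1000 cells/well, we pinned test compounds, stimulated with recombinant TGF-beta (500 pg/mL final) and measured total well GFP after 18 h.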
In the case of `O=C(NCCc1nc2ccccc2[nH]1)/C(=C/c1ccc2c(c1)OCO2)NC(=O)c1ccccc1Cl`, the Potency was inconclusive: 35.5 µM [inhibitor, single point]. For `Cc1cccn2c(/C=N/OCc3ccc(F)cc3)c(-c3ccc(Cl)cc3)nc12`, the Potency was inconclusive: 5.62 µM [inhibitor, single point]. For `COc1cc2c(cc1OC)CN(C(=O)CCCOc1ccc(Cl)cc1Cl)CC2`, the Potency was inconclusive: 35.5 µM [inhibitor, single point]. With `CCn1c2ccccc2c2cc(/C=N/NC(=O)c3ccc(O)cc3)ccc21` the Potency was inconclusive: 35.5 µM [inhibitor, single point]. In the case of `CC(C)C[C@H]1CNC(=S)N1CC1CCCN1C[C@H](CC(C)C)N1C[C@H](CC(C)C)N(CCc2ccccc2)C1=S` (stereo not given in full), the Potency was inconclusive: 8.91 µM [inhibitor, partial curve, poor fit]. With `O=C(O)/C=C/C(=O)Nc1nc(-c2ccc3ccccc3c2)cs1` the “activity, negative = inhibition” value was inactive: 0%. In the case of `Cc1ccccc1NC(=O)c1c(NC(=O)C(F)(F)F)sc2c1CCCCC2`, the Potency was active: 1.41 µM. In the case of `NC(=O)c1sc2nc(-c3ccco3)ccc2c1N`, the Potency was inconclusive: 35.5 µM [inhibitor, single point]. In the case of `COc1ccc(CC(=O)Nc2nnc(-c3cccc([N+](=O)[O-])c3)s2)cc1`, the Potency was inconclusive: 35.5 µM [inhibitor, single point]. In the case of `O=C(CSc1nnc(NC(=O)C2CC(=O)N(c3ccc(F)cc3)C2)s1)NCC1CCCO1` (stereo not given), the “activity, negative = inhibition” value was inactive: -11.3%. For `Cc1cn(S(=O)(=O)c2ccc(F)c(Cl)c2)cn1`, the “activity, negative = inhibition” value was inactive: -15.3%. With `O=C(c1ccc(F)cc1)N1CCC(C(=O)N2CCN(S(=O)(=O)c3ccccc3Br)CC2)CC1` the Potency was inconclusive: 4.47 µM [inhibitor, full curve]. In the case of `CCCCNc1c(-c2ccc(SC(C)CC)cc2)nc2cnccn12` (stereo not given), the Potency was inconclusive: 35.5 µM [inhibitor, single point]. With `CC(C)CN=c1cc(-c2ccccc2)oc2ccc(Cl)cc12` the Potency was inconclusive: 20 µM [inhibitor, single point]. With `O=C(COCc1cc(-c2cccs2)on1)NCc1cccc(Cl)c1` the Potency was inconclusive: 31.6 µM [inhibitor, single point]. For `CC(C(O)c1ccc(O)cc1)N1CCC(Cc2ccccc2)CC1` (stereo not given), the Potency was “inactive”. With `O=C1CCC(C(=O)N2CCN(c3ccccc3Cl)CC2)CN1CC1CCCCC1` (stereo not given) the Potency was inconclusive: 35.5 µM [inhibitor, single point]. In the case of `O=S(=O)(c1ccc(Cl)c(C(F)(F)F)c1)N1CCN(CC(O)COc2ccccc2F)CC1` (stereo not given), the Potency was inconclusive: 22.4 µM [inhibitor, single point]. In the case of `O=C(CCCN1C(=O)/C(=C\c2cccs2)SC1=S)Nc1ccc(O)cc1`, the Potency was inconclusive: 11.2 µM [inhibitor, partial curve]. With `CC1Cc2ccccc2N1C(=O)CSc1nccc(=O)[nH]1` (stereo not given) the “activity, negative = inhibition” value was inactive: 5.89%. In the case of `CCn1c(C(=O)N2CCC(C(=O)NCCCOC)CC2)cc2sccc21`, the Potency was inconclusive: 17.8 µM [inhibitor, single point]. With `CCOc1ccc(C(=O)Nc2c3c(nn2-c2cccc(C)c2C)CS(=O)C3)cc1` (stereo not given) the “activity, negative = inhibition” value was inactive: 9.21%. In the case of `Cc1cccc(-c2nc(=S)c3c(o2)CCCC3)c1`, the “activity, negative = inhibition” value was inactive: 2.34%. For `CC(=O)Nc1ccc(CNc2nc(NCCN(C)C)nc3cc(-c4ccccc4)sc23)cc1`, the Potency was inconclusive: 20 µM [inhibitor, single point]. For `Cc1ccc(C(=O)Nc2ccccc2-c2ccccc2)cc1S(=O)(=O)Nc1ccccc1`, the Potency was inconclusive: 35.5 µM [inhibitor, single point]. For `COc1ccc(OC)c(S(=O)(=O)Nc2cccc(-c3ccc(N4CCCCCC4)nn3)c2)c1`, the Potency was inconclusive: 14.1 µM [inhibitor, partial curve, poor fit]. With `NNC(=O)c1[nH]c2ccc(Cl)cc2c1-c1ccccc1` the Potency was inconclusive: 35.5 µM [inhibitor, single point]. In the case of `COc1cc(NC(=O)C2CC2)c(C(=O)O)cc1OC`, the Potency was inconclusive: 10 µM [inhibitor, partial curve, poor fit]. For `CC(NC(=O)OCc1ccccc1)c1ccccc1` (stereo not given), the “activity, negative = inhibition” value was inactive: 10.1%. For `O=C(Cn1c(=O)n(CCc2ccccc2)c(=O)c2c3c(sc21)CCCC3)Nc1ccc(F)c(F)c1`, the “activity, negative = inhibition” value was inactive: -0.338%. With `OCCCN1CNC(=S)NC1` the “activity, negative = inhibition” value was inactive: 3.47%. With `CCOC(=O)C1=C(C)NC2=C(C(=O)CC(c3cccs3)C2)C1c1cccs1` (stereo not given) the Potency was inconclusive: 28.2 µM [inhibitor, single point]. With `CN(C)CCCn1c(N)c(C#N)c2nc3ccccc3nc21` the “activity, negative = inhibition” value was inactive: 4.85%. For `Cn1c(-c2ccc(S(=O)(=O)N3CCCC3)cc2)csc1=Nc1ccc(Cl)c(Cl)c1`, the Potency was inconclusive: 17.8 µM [inhibitor, single point]. With `COc1ccc(C2CC(=O)c3cnc(NC(=O)c4ccccc4OC)nc3C2)c(OC)c1` (stereo not given) the Potency was inconclusive: 35.5 µM [inhibitor, partial curve, poor fit]. In the case of `CCCCSC1=N/C(=C/c2ccsc2)C(=O)N1c1ccccc1`, the Potency was inconclusive: 35.5 µM [inhibitor, single point]. With `COc1ccc(-c2nnn(CC(=O)N3CCN(c4ccccc4OC)CC3)n2)cc1OC` the “activity, negative = inhibition” value was inactive: -1.8%. With `CCNC(=S)NCc1ccc(OC)c(OC)c1` the “activity, negative = inhibition” value was inactive: 8.63%. For `CCc1cc2c(=O)c(-c3nc4ccccc4n3C)coc2c(CN2CCCC(C)C2)c1O` (stereo not given), the “activity, negative = inhibition” value was inactive: -26.2%. With `CCOCCCNC(=S)N1CCCC(c2nc3ccc(C)cc3[nH]2)C1` (stereo not given) the Potency was inconclusive: 35.5 µM [inhibitor, single point]. In the case of `CN(C(=O)C1CCC(=O)N(Cc2cccc(F)c2)C1)C1CCCCC1` (stereo not given), the “activity, negative = inhibition” value was inactive: 0%. In the case of `Cc1ccc(CSC2=Nc3ccccc3C3=NC(CC(=O)NCc4cccs4)C(=O)N23)cc1` (stereo not given), the Potency was inconclusive: 35.5 µM [inhibitor, single point]. With `COc1ccc(NS(=O)(=O)c2cccc(C(=O)NCC(c3ccc(OC)cc3)N3CCCC3)c2)cc1` (stereo not given) the “activity, negative = inhibition” value was inactive: 23.4%. For `CN(Cc1ccccc1)C(=O)COC(=O)CCC(=O)c1ccc(Cl)cc1`, the “activity, negative = inhibition” value was inactive: -0.55%. With `NC(=O)c1ccccc1NC(=O)c1ccc2ccccc2c1` the Potency was inconclusive: 22.4 µM [inhibitor, partial curve, poor fit]. In the case of `Cc1cc(C)cc(-n2ncc3c2CCCC3NC(=O)CCCn2cncn2)c1` (stereo not given), the “activity, negative = inhibition” value was inactive: -4.47%. With `C[C@@H]1CN([C@H](C)CO)C(=O)c2c(c3ccccc3n2C)-c2ccccc2CO[C@H]1CN(C)Cc1ccccc1` the Potency was inconclusive: 35.5 µM [inhibitor, single point]. For `Cc1noc(C)c1S(=O)(=O)N(CC(=O)NCc1ccc(Cl)cc1)c1ccc2c(c1)OCO2`, the Potency was inconclusive: 10 µM [inhibitor, partial curve, poor fit]. For `COc1cccc(CNC(=O)CN2C(=O)COc3ccc(S(=O)(=O)N4CCCCCC4)cc32)c1`, the Potency was inconclusive: 17.8 µM [inhibitor, single point]. In the case of `CC(C)C1=NOC(C(=O)N2CCC(N3CCC(C(=O)N4CCOCC4)CC3)CC2)C1` (stereo not given), the “activity, negative = inhibition” value was inactive: 10.8%. In the case of `CCOc1ccc(NC(=O)Nc2cc(-c3ccccc3)sc2C(=O)OC)cc1`, the “activity, negative = inhibition” value was inactive: -13.8%. With `COc1ccc(-c2cc(N)n(S(=O)(=O)c3ccc(F)cc3)n2)cc1OC` the Potency was inconclusive: 11.2 µM [inhibitor, partial curve, poor fit]. With `Cc1ccc(-n2c(SCC(=O)OC(C)C)nnc2-c2cnccn2)cc1` the Potency was inconclusive: 35.5 µM [inhibitor, single point]. In the case of `CCCCCCN(C(=O)CCl)c1ccccc1`, the Potency was active: 22.4 µM. In the case of `Cc1ccc(S(=O)(=O)N2C[C@H]3N(C(=O)OC(C)C)N(C(=O)OC(C)C)C[C@H](OC(=O)Nc4cccs4)[C@@]3(O)C2)cc1`, the Potency was inconclusive: 11.2 µM [inhibitor, partial curve, poor fit]. With `Cc1cc(N2CCN(C)CC2)ccc1NC(=O)c1c2c(nc3ccccc13)CCN(Cc1ccccc1)C2` the Potency was active: 10 µM. For `O=C(Nc1nnc(C2=COCCO2)o1)c1ccc([N+](=O)[O-])cc1`, the “activity, negative = inhibition” value was inactive: -3.95%. With `COC(=O)/C(=C\c1ccc([N+](=O)[O-])o1)NC(=O)c1ccccc1` the Potency was active: 11.2 µM. For `COC(=O)[C@]1(Cc2ccccc2)N[C@H](CN(C)C(=O)COc2ccccc2)[C@@H]2C(=O)N(Cc3ccccc3)C(=O)[C@@H]21`, the Potency was inconclusive: 35.5 µM [inhibitor, single point]. With `CN(C)CCCNCC(=O)Nc1ccccc1N1CCOCC1` the “activity, negative = inhibition” value was inactive: 2.01%. With `Cc1nc2ccn(Cc3ccccc3)c(=O)c2cc1C(=O)NCc1ccccc1F` the Potency was inconclusive: 3.98 µM [inhibitor, partial curve]. In the case of `COc1cccc(NC(=O)CN(C)C(=O)c2ccc3ccccc3c2)c1`, the “activity, negative = inhibition” value was inactive: 24.4%. With `CCc1ccc(C2CC(=O)NC(NC(=O)c3ccc(C(C)(C)C)cc3)=N2)cc1` (stereo not given) the “activity, negative = inhibition” value was inactive: 0.414%. With `CCOc1ccc(C)cc1S(=O)(=O)NC1CCCCC1` the Potency was inconclusive: 5.62 µM [inhibitor, single point]. For `CC1CC(=O)N(CC(=O)Nc2ccc(F)cc2F)c2ccccc2S1` (stereo not given), the “activity, negative = inhibition” value was inactive: 14.9%. For `Cc1cccc(C(=O)OCC(=O)N(CC(C)C)c2c(N)n(Cc3ccccc3)c(=O)[nH]c2=O)c1C`, the “activity, negative = inhibition” value was inactive: -3.12%. In the case of `COc1ccc(CN2C[C@@H](CO)O[C@@H](n3cnc4c(NCCN(C)C)ncnc43)C2)cc1`, the Potency was inconclusive: 22.4 µM [inhibitor, single point]. For `COc1cc(NC(=S)NC(C)(C)C)c(OC)cc1Cl`, the Potency was inconclusive: 8.91 µM [inhibitor, partial curve, poor fit]. With `COCOc1cc(O)c(C(=O)/C=C/c2ccccc2)c(OCOC)c1` the Potency was inconclusive: 28.2 µM [inhibitor, single point]. For `O=C(CCCn1ccc2cc(S(=O)(=O)N3CCCC3)ccc21)NCc1ccc(Cl)cc1`, the Potency was inconclusive: 10 µM [inhibitor, partial curve, poor fit].
